In all, about 2,900 compounds were measured (“IRF Lucia reporter activity, fold change vs agonist alone”: median about 0.9, highest 2% from about 2.8 on). The list shows a part of the results.

Consider 28 molecules from the supplement of paper PMC10037445.

In assay [1] the test system is RAW-Dual. Briefly: IRF Lucia reporter activity, fold change vs agonist alone; higher = enhanced IRF activity. The settings on record: cytotoxicity flag (confluency mask): not cytotoxic, agonist: MPLA (TLR4) […]. The method in brief: (§1)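 RAW-Dual macrophages were seeded in DMEM at 50,000 cells/well in 384-well plates, given 50 nL of library stock by pin tool, and given a PRR agonist 1 h later. Plates were held at 37 °C, 5% CO2 for 20 hours, after which supernatant was read for IRF by QuantiLuc luminescence and for NF-κB by QuantiBlue absorbance at 620 nm. Reporter activity is expressed as fold change over wells that received agonist alone. A well was called cytotoxic when IncuCyte confluency fell below 70% of agonist controls in both mask sets.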

Assay [2] has as its system RAW-Dual. The experiment in a line: IRF Lucia reporter activity, fold change vs agonist alone; cytotoxicity flag (confluency mask): not cytotoxic; higher = enhanced IRF activity. The method in brief:
as §1

Where [3] appears, read: library stock concentration (final ~1000-fold dilution): 10 mM.
Setting [4] is: agonist: 3'3'-cGAMP (STING) 10 ug/mL.
Setting [5] is: library stock concentration (final ~1000-fold dilution): 2 mM.

Turning to `CC(C)(C)C(=O)OCOP(=O)(COCCn1cnc2c(N)ncnc21)OCOC(=O)C(C)(C)C`, the “IRF Lucia reporter activity” value with RAW-Dual [1] (setting [3]) was 2.95.
Regarding `CC(C)(C)C(=O)OCOP(=O)(COCCn1cnc2c(N)ncnc21)OCOC(=O)C(C)(C)C` (library stock concentration (final ~1000-fold dilution): 10 mM), the results for the “IRF Lucia reporter activity” value in the assay on RAW-Dual [2] (setting [4]) and in the assay on RAW-Dual [2] (agonist: LPS (TLR4) 0.1 ug/mL) were 2.04 and 2.36, respectively.
For `COc1cc(-c2cc(-c3ccc(Cl)cc3)nc(=O)[nH]2)ccc1O` (library stock concentration (final ~1000-fold dilution): 10 mM) the same measures were 0.736 and 0.926.
For `COc1ccc2[nH]c(S(=O)Cc3ncc(C)c(OC)c3C)nc2c1` (centres undefined), the “IRF Lucia reporter activity” value in the assay on RAW-Dual [1] (setting [3]) amounted to 0.986.
For the molecule `COc1ccc2[nH]c(S(=O)Cc3ncc(C)c(OC)c3C)nc2c1` (centres undefined) (library stock concentration (final ~1000-fold dilution): 10 mM), the “IRF Lucia reporter activity” value in the assay on RAW-Dual [2] (setting [4]) stood at 0.987; with RAW-Dual [2] (agonist: LPS (TLR4) 0.1 ug/mL), 0.982.
On to `O=c1ccc2ccc(O)c(O)c2o1` (library stock concentration (final ~1000-fold dilution): 10 mM), for which the “IRF Lucia reporter activity” value in the assay on RAW-Dual [2] (setting [4]) is 0.815; with RAW-Dual [2] (agonist: LPS (TLR4) 0.1 ug/mL) it was 1.02.
As for `O=c1ccc2ccc(O)c(O)c2o1`, in the assay with RAW-Dual [1] (setting [3]), the “IRF Lucia reporter activity” value came to 0.915.
Regarding `Nc1nc(N)c2nc(-c3cccc(O)c3)cnc2n1` (library stock concentration (final ~1000-fold dilution): 2 mM), the “IRF Lucia reporter activity” value in the assay with RAW-Dual [2] (setting [4]) turned out to be 0.408; in the assay with RAW-Dual [2] (agonist: LPS (TLR4) 0.1 ug/mL), 1.18.
With `Nc1nc(N)c2nc(-c3cccc(O)c3)cnc2n1`, in the assay on RAW-Dual [1] (setting [5]), the “IRF Lucia reporter activity” value was 1.12.
For `COc1ccccc1N1CCN(CC(O)COc2cccc3ccccc23)CC1` (centres undefined), in the assay on RAW-Dual [1] (setting [3]), the “IRF Lucia reporter activity” value came out at 1.09.
For `COc1ccccc1N1CCN(CC(O)COc2cccc3ccccc23)CC1` (centres undefined) (library stock concentration (final ~1000-fold dilution): 10 mM), the “IRF Lucia reporter activity” value in the assay on RAW-Dual [2] (setting [4]) was 0.943; in the assay with RAW-Dual [2] (agonist: LPS (TLR4) 0.1 ug/mL), 0.994.
Take `Cc1ncc(Cl)cc1NCc1ccc(C(=O)NC(CC2CCCC2)C(=O)NC2CC2)s1` (centres undefined): in the assay with RAW-Dual [1] (setting [3]), the “IRF Lucia reporter activity” value was found to be 1.15.
As for `Cc1ncc(Cl)cc1NCc1ccc(C(=O)NC(CC2CCCC2)C(=O)NC2CC2)s1` (centres undefined) (library stock concentration (final ~1000-fold dilution): 10 mM), the “IRF Lucia reporter activity” value is 1.07 with RAW-Dual [2] (setting [4]) and 1.17 with RAW-Dual [2] (agonist: LPS (TLR4) 0.1 ug/mL).
Turning to `O=c1cc(N2CCOCC2)oc2c1ccc1ccccc12`, the “IRF Lucia reporter activity” value in the assay with RAW-Dual [1] (setting [5]) is 1.15.
In the case of `O=c1cc(N2CCOCC2)oc2c1ccc1ccccc12` (library stock concentration (final ~1000-fold dilution): 2 mM), the results for the “IRF Lucia reporter activity” value in the assay with RAW-Dual [2] (setting [4]) and in the assay with RAW-Dual [2] (agonist: LPS (TLR4) 0.1 ug/mL) were 0.778 and 1.01, respectively.
With `CC#CC(=O)N1CCC(n2c(=O)n(-c3ccc(Oc4ccccc4)cc3)c3c(N)ncnc32)C1.Cl` (centres undefined) (library stock concentration (final ~1000-fold dilution): 10 mM), the “IRF Lucia reporter activity” value in the assay on RAW-Dual [2] (setting [4]) was determined as 0.0947; with RAW-Dual [2] (agonist: LPS (TLR4) 0.1 ug/mL), 0.802.
Regarding `CN1CCN(c2ccc(-c3ccncc3-c3cc(F)c(O)c(F)c3)cc2)CC1` (library stock concentration (final ~1000-fold dilution): 10 mM), the results for the “IRF Lucia reporter activity” value in the assay with RAW-Dual [2] (setting [4]) and with RAW-Dual [2] (agonist: LPS (TLR4) 0.1 ug/mL) were 0.631 and 1, respectively.
`Cc1cc(Nc2ccc(NC(=O)c3ccc(Nc4ccnc5ccccc45)cc3)cc2)nc(N)n1` (library stock concentration (final ~1000-fold dilution): 10 mM): the “IRF Lucia reporter activity” value with RAW-Dual [2] (setting [4]) turned out to be 1.65; with RAW-Dual [2] (agonist: LPS (TLR4) 0.1 ug/mL), 2.84.
For `Cc1cc(Nc2ccc(NC(=O)c3ccc(Nc4ccnc5ccccc45)cc3)cc2)nc(N)n1`, in the assay on RAW-Dual [1] (setting [3]), the “IRF Lucia reporter activity” value worked out at 3.15.
In the case of `CCC1C(COc2nccc3cc(C(N)=O)c(OC)cc23)NC(=O)C1F` (centres undefined) (library stock concentration (final ~1000-fold dilution): .1 mM), the “IRF Lucia reporter activity” value with RAW-Dual [2] (setting [4]) was 0.825; in the assay with RAW-Dual [2] (agonist: LPS (TLR4) 0.1 ug/mL), 1.06.
As for `CCOc1nc2cccc(C(=O)OCc3oc(=O)oc3C)c2n1Cc1ccc(-c2ccccc2-c2nc(=O)o[nH]2)cc1`, in the assay with RAW-Dual [1] (setting [3]), the “IRF Lucia reporter activity” value was determined as 1.16.
As to `CCOc1nc2cccc(C(=O)OCc3oc(=O)oc3C)c2n1Cc1ccc(-c2ccccc2-c2nc(=O)o[nH]2)cc1` (library stock concentration (final ~1000-fold dilution): 10 mM), the figures for the “IRF Lucia reporter activity” value in the assay on RAW-Dual [2] (setting [4]) and in the assay on RAW-Dual [2] (agonist: LPS (TLR4) 0.1 ug/mL) were 1.04 and 1.16, respectively.
With `CCOc1cc(N)c([N+](=O)[O-])cc1C(=O)NC1CCN(CC2CC=CCC2)CC1.O=C(O)C(O)C(O)C(=O)O` (centres undefined) (library stock concentration (final ~1000-fold dilution): 10 mM), the “IRF Lucia reporter activity” value in the assay on RAW-Dual [2] (setting [4]) is 0.711; in the assay on RAW-Dual [2] (agonist: LPS (TLR4) 0.1 ug/mL) it was 1.27.
As for `CCOc1cc(N)c([N+](=O)[O-])cc1C(=O)NC1CCN(CC2CC=CCC2)CC1.O=C(O)C(O)C(O)C(=O)O` (centres undefined), in the assay on RAW-Dual [1] (setting [3]), the “IRF Lucia reporter activity” value is 1.24.
In the case of `CC(C)(C(=O)c1cccnc1)c1cccnc1` (library stock concentration (final ~1000-fold dilution): 10 mM), the “IRF Lucia reporter activity” value amounted to 1.02 in the assay with RAW-Dual [2] (setting [4]) and 1.2 in the assay on RAW-Dual [2] (agonist: LPS (TLR4) 0.1 ug/mL).
As to `CC(C)(C(=O)c1cccnc1)c1cccnc1`, the “IRF Lucia reporter activity” value in the assay on RAW-Dual [1] (setting [3]) came to 1.07.
As to `O=C(Cc1ccc(-c2ccc(OCCN3CCOCC3)cc2)cn1)NCc1ccccc1`, the “IRF Lucia reporter activity” value with RAW-Dual [1] (setting [3]) was found to be 2.
As to `O=C(Cc1ccc(-c2ccc(OCCN3CCOCC3)cc2)cn1)NCc1ccccc1` (library stock concentration (final ~1000-fold dilution): 10 mM), the “IRF Lucia reporter activity” value in the assay on RAW-Dual [2] (setting [4]) is 0.128; with RAW-Dual [2] (agonist: LPS (TLR4) 0.1 ug/mL), 1.72.
